Hit rate of the full screen: of about 340,000 compounds, about 6,900 (2%) were called active. No stated cut-off is given here; in the data, active means inhibition above about 30%; inactive means below that, where a call was filed. This is a selection; strong and weak results do not stand in their true shares. Entries without a call were filed so in the source.
molecular target: D(2) dopamine receptor (Homo sapiens) (UniProt P14416); assay: HTS Assay for Allosteric Antagonists of the Human D2 Dopamine Receptor: Primary Screen for Antagonists; conditions: HEK293 TREx D2 cells, calcium flux, dopamine EC80; at 10 µM; stronger effect = higher value; further: 0% is about no effect
From the text: NIH Chemical Genomics Center [NCGC] NIH Molecular Libraries Probe Centers Network [MLPCN] MLPCN Grant: NS064831-01 Assay Submitter (PI): David Sibley Dopamine receptors (DARs) are involved in the etiology and/or therapy of a number of neuropsychiatric and endocrine disorders. For instance, all receptor-based antiparkinsonian drugs work via stimulating the D2 DAR subtype whereas all FDA-approved antipsychotic agents are antagonists of this receptor. […] There are three different types of allosteric modulators that we are seeking, two of which will stimulate or augment receptor signaling, allosteric agonists and potentiators, while the third, allosteric antagonists, will attenuate receptor signaling. The present primary screening assay measures compound antagonism after an EC80 addition of dopamine by tracking calcium flux in a […], inducible Hek293 Trex D2 cell line.
Freshly passaged cells are plated in 1536 well black, clear bottom plates at a density of 4000 cells/well in 3 ul of complete media containing 1x tetracycline inducer. After an overnight incubation at 30 C in 5% CO2, cells are loaded with 2 ul of the no wash Calcium Assay Kit (ABD Bioquest) and incubated at room temperature for 30 to 90 minutes. Agonist read: A 10 cycle (1 second/cycle) baseline measurement is taken and then the FDSS online 1536 pintool delivers 23 nl of compound library (as well as dopamine controls) to the plate. The plate is measured for kinetically at 1 cycle/sec for 180 seconds. Following the 180 second read, 1 ul of an EC80 (negative modulation assay) is delivered by an onboard pipette head. Measurements are taken kinetically for an additional 180 seconds.

Chain of UniProt P14416 (P14416 whole entry, looked up): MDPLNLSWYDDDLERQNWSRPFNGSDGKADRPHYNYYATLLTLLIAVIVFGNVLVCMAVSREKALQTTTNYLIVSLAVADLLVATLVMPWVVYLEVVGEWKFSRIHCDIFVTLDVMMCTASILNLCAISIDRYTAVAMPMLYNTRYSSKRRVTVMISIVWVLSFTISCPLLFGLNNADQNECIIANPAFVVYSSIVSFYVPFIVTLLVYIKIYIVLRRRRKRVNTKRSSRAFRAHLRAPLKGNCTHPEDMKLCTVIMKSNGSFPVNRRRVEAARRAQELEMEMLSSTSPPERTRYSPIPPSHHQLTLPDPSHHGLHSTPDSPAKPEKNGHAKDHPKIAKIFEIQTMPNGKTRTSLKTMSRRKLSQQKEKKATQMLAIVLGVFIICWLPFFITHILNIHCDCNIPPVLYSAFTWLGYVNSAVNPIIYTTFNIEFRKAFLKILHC

Row | SMILES | inhibition
1 | CC(C)CNc1nc(NC(C)(C)C)nc(Oc2ccc(=O)n(-c3ccccc3)n2)n1 | -19.4%
2 | COc1ccccc1OCCn1c(COc2cc(C)ccc2C)nc2ccccc21 | -9.75%
3 | Cc1nn2c(C)c(C(=O)N3CCN(c4ccccc4)CC3)cnc2c1-c1ccccc1 | 9.26%
4 | Cc1ccc(CCNC(=O)c2cc3c(=O)oc4ccccc4c3s2)cc1 | -6.77%
5 | COc1cccc(CNC(=O)CNS(=O)(=O)c2ccc3nc(C)sc3c2)c1 | 0.638%
6 | COc1cc(NC(=O)CSc2nc3ccccc3nc2Cc2ccccc2OC)cc(OC)c1 | -18.8%
7 | O=C(c1ccc(Cl)cc1)N(Cc1ccco1)Cc1ccco1 | 2.66%
8 | CCOc1ccccc1Nc1sc(C(=O)c2ccccc2)c(N)c1C(=O)NCCc1ccccc1 | -14.5%
9 | COc1ccc(CCNC(=O)CCCn2c(=O)c3ccccc3n(Cc3ccc(C)cc3)c2=O)cc1OC | -12.2%
10 | Cc1ccc2ncc(C(=O)NCCc3ccc(S(N)(=O)=O)cc3)c(=O)n2c1 | 17.5%
11 | COc1ccc(C)cc1NC(=O)COCc1cc(-c2cccs2)on1 | 5.82%
12 | O=C(NCC(Cl)c1ccc2ccccc2c1)c1c(F)cccc1F (stereo not given) | active: 68.8%
13 | CCOc1ccc(NC(=O)CSc2nc3c(c(=O)[nH]2)CCCC3)cc1 | 6.49%
14 | O=C(CCS(=O)(=O)c1cc(Br)cc2c1N(C(=O)C1CC1)CC2)N1CCN(c2ccc(F)cc2)CC1 | -9.05%
15 | COc1cc(C2c3c(oc4ccc(F)cc4c3=O)C(=O)N2c2nc(C)c(C)s2)cc(OC)c1OC (stereo not given) | 4.22%
16 | COc1ccc(N2CCN(S(=O)(=O)CCNC(=O)C3CC(=O)N(c4ccccc4)C3)CC2)cc1 (stereo not given) | -4.07%
17 | CCCOc1ccc(CN(C(=O)c2cc(=O)c3ccc(C)cc3o2)C2CCS(=O)(=O)C2)cc1 (stereo not given) | -3.57%
18 | Cc1nc(CC(=O)Nc2cc(Cl)ccc2C)cs1 | -2.59%
19 | COc1cc(C)ccc1OCCSc1nc(-c2cccc(C)c2)nc2cc(=O)[nH]n12 | 7.33%
20 | CCCN(C(=O)c1cn(C)c(=O)c2ccccc12)c1ccccc1C | 4.02%
21 | Cc1cc(C(=O)COC(=O)c2ccc3c(c2)NC(=O)CS3)c(C)n1CCc1ccc(Cl)cc1 | active: 63.4%
22 | O=C(CN1CCSc2ccccc21)NCc1ccccc1F | -18.2%
23 | COc1ccc2nc(N(Cc3cccnc3)C(=O)C3COc4ccccc4O3)sc2c1 (stereo not given) | -10%
24 | CCNC(=O)c1ccc2nc(CCc3ccccc3)oc2c1 | -6.47%

Row | SMILES | inhibition
25 | CCN(CC)CCCNC(=O)c1ccc2nc(N3CCCCC3)sc2c1 | -10.1%
26 | Cn1c(CCN2CCCCC2)nc2cc(NS(=O)(=O)c3ccccc3)ccc21 | active: 37.9%
27 | CCC(C(=O)NCCc1ccc(OC)c(OC)c1)n1nc(C)n2c(cc3occc32)c1=O (stereo not given) | active: 33.1%
28 | Cc1cc(Nc2ccccc2C)nc(-n2nc(C)cc2C)n1 | -15.5%
29 | Cc1n[nH]c(C)c1S(=O)(=O)N1CCCC(C(=O)Nc2ccc(Br)cc2)C1 (stereo not given) | 3.09%
30 | COc1ccc(CCNC(=O)c2cc(C)nc3c2c(C)nn3-c2ccc(C)cc2)cc1OC | 5.71%
31 | O=C1C(=O)N(C2CCN(C(=O)c3ccc(Cl)cc3)CC2)CCN1Cc1ccc(F)cc1 | 4.68%
32 | CCOc1ccccc1CNC(=O)Cn1ncn2nc(-c3cccs3)cc2c1=O | 17.4%
33 | COc1ccccc1CCNC(=O)C(=O)NCC(c1cccs1)S(=O)(=O)c1ccc(C)cc1 (stereo not given) | -8.83%
34 | COc1ccc(Nc2nnc(-c3cc4c(ccc5ccccc54)oc3=O)s2)cc1 | 1.7%
35 | COc1ccccc1C(=O)Nc1nc2nc(-c3ccccc3)cc(=O)n2[nH]1 | 3.26%
36 | Cc1cc(C)cc(NC(=O)[C@H](NC(=O)[C@@H]2Cc3ccccc3CN2)c2ccccc2)c1 | active: 40.1%
37 | CCc1nn2c(=O)cc(COC(=O)c3ccc(NC(=O)c4cccs4)cc3)nc2s1 | -0.319%
38 | Cc1ccccc1NS(=O)(=O)c1ccc2[nH]cc(C(=O)NC(C)c3ccccc3)c(=O)c2c1 (stereo not given) | -23.8%
39 | CC1CCC(NC(=O)CN2CCC(n3nnc4cc(F)ccc43)CC2)CC1 (stereo not given) | active: 41.2%
40 | Cc1ccc(-c2noc(-c3ccc(NCc4ccco4)c([N+](=O)[O-])c3)n2)cc1 | 13.6%
41 | COc1cc(NC(=O)CC(c2ccc(C)cc2)N2Cc3ccccc3C2=O)cc(OC)c1 (stereo not given) | 21.9%
42 | CC1=C(c2ccc(F)cc2)S(=O)(=O)NC1=NCc1ccccc1F | 5.99%
43 | COC1CCCN(C(=O)c2ccc3oc(Cc4ccc(Cl)cc4)nc3c2)C1 (stereo not given) | active: 30.6%
44 | COc1ccc(-c2nc(C)c(CCNC(=O)C(=O)Nc3ccccc3C#N)s2)cc1OC | -13%
45 | COc1cc(C2CC(=O)c3c([nH]c(C(=O)OCC4CCCCC4)c3C)C2)cc(OC)c1OC (stereo not given) | 8.73%
46 | Cc1cc(C)n(CC2CC(=O)N(c3cc(Cl)cc(Cl)c3)C2=O)n1 (stereo not given) | active: 30.5%
47 | COC(=O)c1c(NC(=O)c2nc(SCc3cccc(C)c3)ncc2Cl)sc2c1CCCC2 | -12.5%
48 | COc1ccc(-n2nnc(-c3nc(-c4cccs4)no3)c2N)cc1OC | 0.809%

Row | SMILES | inhibition
49 | CCc1ccc(CNC(=O)COc2cc(=O)n(CC)c3ccccc23)cc1 | -12.7%
50 | CC(=O)N1CCCC1c1nc2ccccc2n1Cc1cccc(Cl)c1 (stereo not given) | -12.3%
51 | Cc1cn2c(=O)cc(COc3ccccc3NC(=O)c3ccc(C(C)(C)C)cc3)nc2s1 | -6.87%
52 | COCCCNC(=O)CNC(=O)c1nn(-c2ccc(OC)c(Cl)c2)c(=O)c2ccccc12 | active: 50%
53 | Cc1cccc(CNC(=O)c2oc3c(c2C)-c2nn(Cc4cccc(Cl)c4)cc2CC3)c1 | 26.1%
54 | CCOc1ccc(CN2C(=O)c3ccccc3Sc3ccc(C(=O)NC)cc32)cc1 | 8.05%
55 | CC(C)NC(=O)Cn1c(=O)nc(-c2ccccc2F)c2cc(Cl)ccc21 | -5.1%
56 | COC(=O)c1ccc2c(c1)N(CC(=O)Nc1cccc(Cl)c1C)C(=O)c1ccccc1S2 | 1.45%
57 | Cc1noc(-c2ccc(N3CCC(C)CC3)c([N+](=O)[O-])c2)n1 | 15%
58 | COc1ccc(NC(=O)Cn2c(=O)oc3cc(S(=O)(=O)NCc4ccccc4)ccc32)c(OC)c1 | 13.3%
59 | CCCCN(C)CCCNC(=O)Cn1ncc2c3ccccc3n(Cc3ccccc3F)c2c1=O | 1.27%
60 | COc1ccc(NS(=O)(=O)c2cc3c(cc2C)NC(=O)CO3)c(OC)c1 | 25.6%
61 | O=C(CSC1=Nc2ccccc2C2=NC(Cc3ccccc3)C(=O)N12)Nc1ccccc1C(F)(F)F (stereo not given) | -17.3%
62 | COc1cc(NC(=O)C2CCN(S(=O)(=O)c3ccc4c(c3)oc(=O)n4C)CC2)cc(OC)c1 | 10.5%
63 | Cc1cc(Cl)ccc1OC(C)C(=O)NCCc1ccc2c(c1)OCCO2 (stereo not given) | active: 63.6%
64 | CCOC(=O)c1cc2c(=O)n3ccccc3nc2n(CCOC)c1=NC(=O)C(C)(C)Oc1ccc(Cl)cc1 | 8.08%
65 | Cc1nc2nc(NC(=O)C(C)(C)C)[nH]n2c(=O)c1Cc1ccccc1 | -8.25%
66 | CCCCCC1=CCC/C1=N\NC(=O)c1ccc2c(c1)OCO2 | active: 31.2%
67 | Cc1ccc(Cn2ccn(CC(=O)Nc3c(C)cc(C)cc3C)c(=O)c2=O)cc1 | 19.3%
68 | CC(C)c1cnc2c(c1SCc1cccc(F)c1)c(=O)n(C)c(=O)n2C | 13.6%
69 | CC(=O)Oc1ccc(N2C(=O)C3C4C=CC(CC4)C3C2=O)cc1[N+](=O)[O-] (stereo not given) | active: 62.2%
70 | Cc1ccc(-c2nc3nc(C)cc(C)n3c2Nc2ccc3c(c2)OCCO3)cc1 | 5.24%
71 | CCOc1ccc(NC(=O)Cn2c(=O)n(Cc3nc(-c4ccccc4)no3)c(=O)c3cc4c(cc32)OCO4)cc1 | 2.15%
72 | CC(=O)c1ccc(NC(=O)c2nc(-c3ccccc3)n(-c3ccc(Cl)cc3)n2)cc1 | 11.2%

Row | SMILES | inhibition
73 | O=C(/C=C/c1ccc2c(c1)OCO2)NCCSCc1c(Cl)cccc1Cl | active: 33.8%
74 | CC1CCN(c2oc(-c3ccc(COc4ccccc4)o3)nc2C#N)CC1 | 5.34%
75 | COc1cccc(NC(=O)CSC2=C(C#N)C(c3ccco3)C3=C(CCCC3=O)N2)c1 (stereo not given) | active: 36.9%
76 | CCc1ccc(-n2c(N3CCN(c4cccc(Cl)c4)CC3)nc3ccccc3c2=O)cc1 | -10%
77 | COc1ccccc1C(=O)NC1CC2CCC(C1)N2Cc1ccccc1 (stereo not given) | active: 89.4%
78 | CC(C)OCCCNC(=O)C(=O)Nc1ccc2nc3n(c(=O)c2c1)CCCCC3 | 2.72%
79 | Fc1cc(F)c2ncc3c(-c4ccccc4)nn(-c4cccc(Cl)c4)c3c2c1 | -1.18%
80 | Cc1ccccc1NC(=O)C1CCN(C(=O)c2cnn(-c3ccccc3)c2-n2cccc2)CC1 | 3.68%
81 | Cc1cccc(Cn2c(=O)n(Cc3ccccc3)c(=O)c3oc4ccccc4c32)c1 | 1.8%
82 | Cc1ccc(Sc2ccc(N3CCC(C(=O)Nc4ccc(C)c(F)c4)CC3)nn2)cc1 | 3.72%
83 | COc1cc(NC(=O)N(Cc2ccco2)C2CCN(C(C)=O)CC2)cc(OC)c1OC | -13%
84 | Cc1cccc(-c2nc3nc(C)cc(NCc4ccccc4Cl)n3n2)c1 | 8.56%
85 | COc1ccc(-c2cc(C(F)(F)F)nc(-n3nc(C(F)(F)F)cc3C)n2)cc1 | 1.89%
86 | Cc1cc(C)c(Cn2c3ccccc3c3cnn(CC(=O)NCc4ccccn4)c(=O)c32)c(C)c1 | -1.15%
87 | CC(C)OC(=O)c1cccnc1N1CCN(c2ccc(F)cc2)CC1 | active: 32.7%
88 | Cc1ccc(NC(=O)CCNC(=O)c2ccco2)cc1Cl | active: 35.9%
89 | O=C(CCS(=O)(=O)c1ccc(Br)cc1)Nc1ccc(Cl)c(C(F)(F)F)c1 | 3.52%
90 | COc1ccccc1CCNC(=O)C(=O)NCC(c1cccs1)S(=O)(=O)c1ccccc1 (stereo not given) | -9.79%
91 | CCOC(=O)c1cccc(NC(=O)c2cn(-c3cccc(OC)c3)c(=O)c3ccccc23)c1 | -0.0645%
92 | COc1cccc(NC(=O)Cn2c(=O)n(CC(=O)NCc3ccc(C)cc3)c(=O)c3sccc32)c1 | -23.9%
93 | Cc1ccc(C(c2ccccc2)c2c(C)[nH]c3ccccc23)s1 (stereo not given) | 7.89%
94 | Cc1ccc2nc(-c3c[nH]c4ccccc34)c(Nc3ccccc3C)n2c1 | 1.33%
95 | Cc1ccc(-c2cc(NC(=O)COc3ccc(Cl)c(C)c3)on2)cc1 | 14.6%
